Laboratory results from PubChem BioAssay AID1159614 (National Center for Advancing Translational Sciences (NCATS), 2016).
Among all 45,000 compounds or so, about 65 (0.1%) were called active. Calls come from the whole dose curve; as a rule, active = well fitted activation curve with a large enough effect; inconclusive = small, poorly fitted or top-dose-only effect; inactive = no such curve, though single readings can be large or run the other way. Some of the results follow.

Biological target: Galactocerebrosidase (Homo sapiens) (UniProt P54803)
Sequence of UniProt P54803 (P54803 whole entry, looked up): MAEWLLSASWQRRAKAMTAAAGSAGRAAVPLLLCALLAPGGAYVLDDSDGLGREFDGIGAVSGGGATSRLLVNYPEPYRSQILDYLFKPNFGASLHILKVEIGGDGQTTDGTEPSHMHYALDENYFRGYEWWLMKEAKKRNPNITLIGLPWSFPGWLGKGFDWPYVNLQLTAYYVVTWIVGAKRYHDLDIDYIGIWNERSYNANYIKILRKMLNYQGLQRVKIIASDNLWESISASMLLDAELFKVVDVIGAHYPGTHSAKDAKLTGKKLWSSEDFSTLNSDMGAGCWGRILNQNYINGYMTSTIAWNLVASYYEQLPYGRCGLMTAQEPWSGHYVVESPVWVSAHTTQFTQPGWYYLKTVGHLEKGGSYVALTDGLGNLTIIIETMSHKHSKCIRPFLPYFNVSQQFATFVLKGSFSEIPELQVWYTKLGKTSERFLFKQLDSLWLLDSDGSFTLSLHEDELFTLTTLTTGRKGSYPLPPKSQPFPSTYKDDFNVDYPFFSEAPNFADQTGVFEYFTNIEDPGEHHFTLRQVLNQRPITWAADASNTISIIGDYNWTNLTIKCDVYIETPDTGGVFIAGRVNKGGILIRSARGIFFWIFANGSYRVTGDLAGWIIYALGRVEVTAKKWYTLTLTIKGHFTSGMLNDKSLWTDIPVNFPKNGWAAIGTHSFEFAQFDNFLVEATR
Experiment: A Novel Cell-Based Assay to Identify Small Molecules for B -Galactocerebrosidase; note: 0% is about no effect; nearly all actives have a fitted effect of over 65% in size
Details: 145M-Twi-hGALC-G270D cells (Twitcher mouse brain line with human GALC G270D), HMU-beta-Gal fluorescence, 48 h; series mostly up to 57.5 µM; activation: at the top concentration
Summary of the method: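 Fluorescence readout: HMU-β-gal cleavage by mutant GALC (0.1 mM final, citrate/phosphate pH 5.2 with 1 mg/mL taurocholate), stopped with carbonate/bicarbonate plus Triton X-100. Cells: murine Twitcher 145M-Twi expressing human G270D GALC; qHTS for activators.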

activation, inactive:
COc1ccc(-c2c(C)nn3c(C(F)(F)F)cc(C)nc23)cc1OC -12%
Cc1oc2ncn(C)c(=O)c2c1C(=O)N1CCN(c2ccc(Cl)cc2)CC1 -1.15%
Cc1ccccc1CN1C(=O)c2ccccc2S(=O)c2ccc(C(=O)NCc3ccccc3)cc21 (stereo unspecified) -8.82%
CCOc1cccc(CC(=O)N2CCc3c([nH]c4ccccc34)C2c2ccc(OC)cc2)c1OCC (stereo unspecified) -14.1%
COc1ccc(Cn2c(C(=O)O)c(CNCCc3cccs3)c3ccc(OC)cc32)cc1 -7.27%
O=C1c2oc3ccccc3c(=O)c2C(c2cccc(O)c2)N1Cc1ccc(F)cc1 (stereo unspecified) -16.5%
CCOc1ccc(N(CC(=O)Nc2ccc3c(c2)OCO3)S(=O)(=O)c2ccccc2)cc1 -21.2%
CC(C)Sc1ncc(Cl)c(C(=O)Nc2c(C(=O)Nc3ccccc3)oc3ccccc23)n1 -17.4%
Cc1ccccc1Nc1c(-c2ccccc2O)nc2sccn12 -23.6%
Cc1nn(C)c2c1c(-c1ccccc1)cc(=O)n2Cc1c(F)cccc1Cl 6.05%
O=C(c1cc(-c2ccc(Cl)cc2)on1)N(Cc1ccc(F)cc1)Cc1ccco1 -13.8%
COc1cc(C2C(C(=O)Nc3ccc(C)cc3C)=C(C)Nc3nc(SCc4ccccc4)nn32)cc(OC)c1OC (stereo unspecified) -14.5%
O=C1CN(C(=O)c2ccc(S(=O)(=O)N3CCCC3)cc2)C(c2ccc(F)cc2)c2cc(F)ccc2N1 (stereo unspecified) -22.3%
CCc1ccc(NS(=O)(=O)c2ccc3[nH]cc(C(=O)N4CCCCCC4)c(=O)c3c2)cc1 -9.79%
CCc1cccc(NC(=O)c2sc3nc[nH]c(=O)c3c2C)c1 -15.1%
COc1ccc(N(C(=O)c2ccc(C)cc2)S(=O)(=O)c2ccc(Cl)cc2)cc1 -1.95%
CCOC(=O)Cc1ccc(NC(=O)N2CCC(CN3CCC(C)CC3)CC2)cc1 -13.9%
CCN(c1ccccc1)S(=O)(=O)c1nnc(NC(=O)C(C)Oc2ccccc2)s1 (stereo unspecified) -12.2%
CCOc1ccc(CCNC(=O)c2ccc(C)c(-n3c(C)nc4cccnc43)c2)cc1OCC -11%
Cc1cccc(-c2nnc(SCC(=O)NC3CCCCC3)o2)c1 -14.4%
Cc1ccc(CNC(=O)c2cnn3c(C)c(Cc4c(F)cccc4Cl)c(C)nc23)cc1 14.1%
CCOc1ccc(C(=O)Nc2cc(-c3ccccc3)no2)cc1 -12.8%
Cc1cc(Br)ccc1NC(=O)CN1C(=O)c2cccnc2Sc2ccccc21 -5.48%
COc1ccc(N(Cc2cccs2)C(=O)COc2ccc([N+](=O)[O-])cc2)cc1 -2.15%
CCOc1ccccc1NC(=O)c1cc2ccc3cccnc3c2[nH]1 0.77%
CCN(Cc1ccccc1)C(=O)c1cc2ccc3cccnc3c2[nH]1 -11%
CCOC(=O)c1ccc(NC(=O)CSc2nc(C)c(Cc3ccccc3)c(=O)[nH]2)cc1 -16%
Cc1ccc(-c2ccc(=O)n(CC(=O)Nc3ccc(C(C)C)cc3)n2)cc1 -6.45%
C=CCOc1ccc(C2c3c(oc4ccc(C)cc4c3=O)C(=O)N2CCCN2CCOCC2)cc1 (stereo unspecified) 10.4%
Cc1ccc(Cn2ccn(Cc3cccc(C(F)(F)F)c3)c(=O)c2=O)cc1 -17.6%
COc1cccc(NC(=O)CSc2nc3c([nH]c4ccccc43)c(=O)n2-c2cccc(Cl)c2)c1 -18.1%
O=C(Nc1ccc(F)c(Cl)c1)C1Cc2ccccc2CN1S(=O)(=O)c1ccc(F)cc1 (stereo unspecified) -4.67%
CCc1nn(CC(=O)Nc2ccc(C)cc2C)c(=O)c2cc3sccc3n12 -20.9%
COCCNC(=O)CCn1c(=O)c2cc(OC)c(OC)cc2n(CC(=O)Nc2ccccc2OC)c1=O 6.32%
COc1ccccc1NC(=O)c1c(C)cc(C)nc1SCC(=O)Nc1cccc(C)c1 -14.7%
CCN(CC)CCOC(=O)c1ccc(NC(=O)CSc2cc(=O)n(CC)c3ccccc23)cc1 -18.4%
CCc1cccc(CC)c1N(COC)C(=O)Cn1c(C)nc2ccccc21 -21.5%
Cc1ccc(-n2nc(C)c3c(C)cc(=O)n(CC(=O)NC(C)C)c32)cc1 -15.7%
CCCCn1c(SCC(=O)Nc2cccc(OC)c2)nc2ccsc2c1=O 2.47%
Cc1ccc(NC(=O)c2cn(-c3ccccc3)nc2-c2ccccc2)cc1 -35.1%
COc1ccc(-n2cc(-c3ccccc3)c3c(NCc4cccc(Cl)c4)ncnc32)cc1 -6.18%
COc1cc(OC)c(NC(=O)c2cnn(-c3cccc(Cl)c3C)c2C2CCN(C(=O)OC(C)(C)C)CC2)cc1Cl -16.3%
O=C(NCc1ccccc1)c1ccc(NC(=O)N2CCSc3ncccc32)cc1 6.87%
COc1ccc(Nc2ncnc3onc(-c4ccc(Cl)cc4)c23)cc1Cl -9.21%
CCOC(=O)c1c(NC(=O)COc2cccc(C)c2C)sc2c1CCCCC2 -6.18%
CC(C)c1ccc(Nc2c(-c3ccc(N4CCOCC4)cc3)nc3ncccn23)cc1 0.248%
COc1ccc(NC(=O)C2CCC(CNS(=O)(=O)c3csc(C(N)=O)c3)CC2)cc1 (stereo unspecified) -3.17%
COc1ccc(-c2cn3nc(N4CCC(C(=O)NCc5ccc(F)cc5)CC4)sc3n2)cc1 -4.59%
Cc1ccc(C2=NN(CC(=O)NC(C)c3ccccc3)C(=O)CC2)cc1 (stereo unspecified) 0.391%
CCOC(=O)CNC(=O)c1cc2c(=O)n(CC)c3ccccc3c2s1 1.61%
CCCOC(=O)c1ccc(NC(=O)Cn2nnc3sc4c(c3c2=O)CCC(C(C)(C)C)C4)cc1 (stereo unspecified) -0.736%
Cc1ccc(CNC(=O)CSc2ccc(-c3sc(-c4ccccc4)nc3C)nn2)cc1 -4.22%
COC(=O)c1cc2sc(C)cc2n1Cc1ccccc1 -24.2%
COc1ccc(-c2onc(C)c2C)cc1S(=O)(=O)Nc1ccc(OC(F)(F)F)cc1 5.9%
CCOC(=O)c1cccc(NC(=O)c2cc(S(=O)(=O)N3CCCC3)cn2C)c1 3.83%
Cc1ccc(CSc2oc(-c3ccco3)nc2S(=O)(=O)c2ccc(Cl)cc2)cc1 -0.281%
CCCOc1ccc(-c2cccc(NS(=O)(=O)c3cccs3)c2)nn1 -7.59%
O=C(Nc1cccc(C(F)(F)F)c1)c1cc2nc(-c3ccccc3)cc(C(F)(F)F)n2n1 -1.99%
O=S(=O)(c1ccc(Br)cc1)c1nc(-c2ccco2)oc1SCc1ccccc1F -27.3%
CC(=O)c1cc(-c2ccc(F)cc2)n(CC(=O)NC2CCCCCC2)c1C -17.3%
CCCOc1ccc(/C=C/C(=O)Nc2sc3c(c2C(=O)OCC)CCC(C)C3)cc1OC (stereo unspecified) -16.7%
COc1ccc(NC(=O)c2ccco2)cc1NC(=O)C(C)Oc1ccc(Cl)cc1Cl (stereo unspecified) -14.7%
CCOc1ccc(CCNC(=O)CN2C(=O)c3cccnc3Oc3ccc(C)cc32)cc1OCC -7.19%
Clc1ccc(N2CCN(Cc3nnc(-c4ccc5c(c4)OCO5)o3)CC2)cc1 -14.1%
CN(C)CCOC(=O)C(c1ccccc1)C1(O)CCCC1 (stereo unspecified) -13.3%
COc1ccc(-c2cccc(NS(=O)(=O)c3cccs3)c2)nn1 -10.5%
CCOc1ccccc1CNC(=O)CCCn1c(=O)c2cccn2c2cccnc21 4.95%
Cc1ccc2oc(-c3cccc(NC(=O)c4cccc5c(Br)cccc45)c3)nc2c1 -17.3%
O=C(CCCn1c(=O)c2cccn2c2ccccc21)Nc1cccc(Cl)c1 -18.8%
Clc1ccccc1CSc1nncn2c1cc1occc12 -6.99%
COc1ccc(-c2cc(C)no2)cc1S(=O)(=O)N1CCN(c2ccc(C(C)=O)cc2)CC1 -15.6%
CC(=O)N1c2ccccc2CC1C(=O)N1CCN(c2cccc(C)c2C)CC1 (stereo unspecified) -14.4%
Cc1ccc2onc(CC(=O)N3CCN(c4ccccc4F)CC3)c2c1 -6.28%
CCc1cc(Cl)c(OC)c(C(=O)NC[C@@H]2CCCN2CC)c1O -10.2%
COc1ccc(NC(=O)C2=C(C)Nc3c(C(=O)Nc4ccc(C)cc4)cnn3C2c2cccc(Cl)c2)cc1 (stereo unspecified) -10.7%
CCCCN(CC)C(=O)c1c[nH]c2ccc(S(=O)(=O)Nc3cccc(OC)c3)cc2c1=O -12.1%
COc1ccc(NC(=O)CC2Nc3cccc4cccc(c34)NC2=O)cc1 (stereo unspecified) -8.88%
CCOC(=O)c1cnc2ccc(Cl)cc2c1Nc1ccc(OCC)cc1 -23.1%
COc1ccc(Nc2cc(C(=O)NCCCN(C)Cc3ccccc3)c3ccccc3n2)cc1 2.98%
CCOC(=O)c1ccc(NC(=O)CC2C(=O)N(c3ccc(F)cc3)C(=O)N2Cc2ccc(C)cc2)cc1 (stereo unspecified) -14.6%
COc1ccc(C(=O)Nc2ccccc2-c2nc3ccccc3s2)c(OC)c1 -8.71%
CCOc1cc(C2Sc3ccccc3NC3=C2C(=O)c2ccccc23)ccc1O (stereo unspecified) -0.797%
CC(C)OCCCNC(=O)CSc1c2c(nc3ccc(Cl)cc13)CCCC2 -2.97%
COc1cccc(-c2nc3c(c(SCC(=O)Nc4cc(C)ccc4C)n2)Cc2c(CO)cnc(C)c2O3)c1 -6.52%
Cc1cccn2c(=O)cc(COc3cccc(NC(=O)COc4ccccc4)c3)nc12 8.47%
Cc1nc(-n2nc(C)c(CCC(C)C)c2C)sc1C(=O)Nc1ccc(Br)cc1 -7.92%
CC(=O)c1ccc(NC(=O)CCc2nc(-c3ccc(C)cc3)no2)cc1 -41.6%
CC(=O)c1ccc(NC(=O)CSc2nc(C3CCCC3)nc3c2c(=O)n(C)c(=O)n3C)cc1 -9.29%
COc1ccc(CNC(=O)C2=C(C)C(=O)OC23CCN(C(C)=O)CC3)cc1 -2.86%
CC1CCN(c2oc(-c3ccc(COc4ccc(Cl)cc4)o3)nc2C#N)CC1 -14.8%
CCCCOc1ccccc1C(=O)Nc1onc2c1CCCC2 -14.9%
CCOC(=O)N1CCc2c(sc3c2c(=O)n(Cc2ccccc2)c(=O)n3Cc2ccc(C)cc2)C1 1.75%
COc1ccc(CCNC(=O)CCCn2c(SCC(N)=O)nc3cc4c(cc3c2=O)OCO4)cc1OC -34.8%
CC(C)OC(=O)/C(C#N)=C/c1ccc(-c2ccc(Cl)c(Cl)c2)o1 -22.8%
CCOc1ccccc1CNC(=O)c1ccc(Cn2c(SCc3ccccc3)nc3cccnc32)cc1 -20.2%
Cc1cc(C)c2nc(NC(=O)c3ccc(S(=O)(=O)N4CCC(C)CC4)cc3)sc2c1 -8.12%
